The campaign covered roughly 71,000 compounds. About 1,800 (2.5%) were called active. This list was built around the results that the source calls inconclusive (neither active nor inactive); the mix of calls is not that of the screen. Calls come from the whole dose curve; as a rule, active = well fitted activation curve with a large enough effect in the signal ratio, with a control signal flat (not every such curve was filed as active); inconclusive = small, poorly fitted or top-dose-only effect, or effect the other way, or a change in a side signal; inactive = flat fitted curve, though single readings scatter; the % refers to the signal ratio. A potency beside an inconclusive call is a rough fit, not a confirmed value.
assay: Cell signaling CRE-BLA (Fsk stim); conditions: CHO CRE-bla reporter (cAMP response element driving beta-lactamase), forskolin EC10, beta-lactamase ratio; activity change, negative = inhibition: at 38.2 µM (top of the series) unless noted; for activity change, negative = inhibition: % of control where 0% means no effect
Summary of the method: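 Modulation of forskolin-driven signalling is measured in CHO cells carrying a CRE-controlled beta-lactamase reporter. Cells are stimulated with EC10 NKH 477 in the presence of titrated compound for 3 h at 37 °C, then loaded with CCF4 for 2 h at room temperature.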
Potency is the fitted concentration of half-maximal effect; tags give direction and shape of the fitted curve.

Q: With `CCOCc1nnc(NC(=O)CSc2ccccc2)s1` as the compound, how does the Potency read?
A: The Potency was inconclusive: 3.16 µM [rising, single point].

Q: For `CCOC(=O)c1c(-c2ccncc2)csc1N`, which Potency is on record?
A: Its Potency is inconclusive: 25.1 µM [rising, single point].

Q: For `CCc1cc(-c2[nH]ncc2-c2ccc3c(c2)OCO3)c(O)cc1O`, which Potency is on record?
A: The Potency was inconclusive: 2 µM [falling, full curve].

Q: Which activity change, negative = inhibition does the source give for `CN(Cc1ccco1)c1nc(-c2ccccc2Cl)nc2ccccc12` here?
A: Its activity change, negative = inhibition is inconclusive: 5.78%.

Q: With `CN1CCN(C2=NC3(CCCC3)C(C#N)C(=O)N2)CC1` (configuration not stated) as the compound, how does the activity change, negative = inhibition read?
A: The activity change, negative = inhibition was “inactive”.

Q: With `CCCCNC(=O)c1sc(=S)n2c1[nH]c(=O)c1ccccc12` as the compound, how does the Potency read?
A: Its Potency is inconclusive: 1 µM [rising, full curve].

Q: With `CC1(C)C2CCC1(C)C(NC1=NCCC1)C2` (configuration not stated) as the compound, how does the Potency read?
A: Its Potency is inconclusive: 3.16 µM [rising, single point].

Q: Which activity change, negative = inhibition does the source give for `C=CCn1c(SCc2ccc(OC)cc2)nnc1-c1cccnc1` here?
A: The activity change, negative = inhibition was “inactive”.

Q: For `CCN(CC(F)(F)C(F)F)S(=O)(=O)c1ccc(NC(=O)OC)cc1`, which activity change, negative = inhibition is on record?
A: The activity change, negative = inhibition was “inactive”.

Q: With `Cc1ccccc1Cn1ccc(NC(=O)c2cnn3c(C(F)(F)F)cc(-c4ccco4)nc23)n1` as the compound, how does the Potency read?
A: Its Potency is inconclusive: 2.51 µM [rising, full curve, poor fit].

Q: For `Cc1cc(C)n(-c2nc3ccccc3c(=O)n2OCC(=O)N(C)C)n1`, which activity change, negative = inhibition is on record?
A: Its activity change, negative = inhibition is inconclusive: -9.27%.

Q: For `Cc1ccc(S(=O)(=O)Nc2cc(C(=O)O)ccc2N2CCCCC2)cc1`, which activity change, negative = inhibition is on record?
A: The activity change, negative = inhibition was inconclusive: 3.3%.

Q: For `O=C(O)c1c2ccccc2cc2ccccc12`, which activity change, negative = inhibition is on record?
A: The activity change, negative = inhibition was inconclusive: 10.6%.

Q: Which Potency does the source give for `COc1ccc(OC)c(NC(=O)CN(c2ccc(OC)c(Cl)c2)S(C)(=O)=O)c1` here?
A: Its Potency is active: 5.01 µM.

Q: For `Cn1c(=O)c2c(SC3CCCC3)nc(C3CC3)nc2n(C)c1=O`, which Potency is on record?
A: Its Potency is inconclusive: 1.26 µM [rising, partial curve].

Q: With `NC(=O)C1(c2ccccc2)CCOCC1` as the compound, how does the activity change, negative = inhibition read?
A: Its activity change, negative = inhibition is “inactive”.

Q: Which activity change, negative = inhibition does the source give for `O=C(CCSc1nnc2scc(-c3ccccc3)n12)Nc1nc(-c2ccccc2)ns1` here?
A: The activity change, negative = inhibition was inconclusive: -22.4%.

Q: Which Potency does the source give for `N#Cc1c(NC(=O)CCn2cnc3ccccc3c2=O)oc(-c2ccccc2)c1-c1ccccc1` here?
A: Its Potency is inconclusive: 2.51 µM [rising, full curve].

Q: Which Potency does the source give for `COc1ccc(C)cc1S(=O)(=O)N1CCCCC1` here?
A: Its Potency is inconclusive: 2.51 µM [falling, partial curve, poor fit].

Q: Which activity change, negative = inhibition does the source give for `C/C(=C1/SC(N2CCOCC2)=NC1=O)c1ccc(Cl)cc1` here?
A: The activity change, negative = inhibition was “inactive”.

Q: For `CCOC(=O)c1ccc2c(c1)nc(SCC(=O)N1CCCCC1)n2CC`, which activity change, negative = inhibition is on record?
A: The activity change, negative = inhibition was inconclusive: 26.2%.

Q: For `COc1ccccc1N1CCN(C(=O)c2ccc3nc(-c4ccco4)c(-c4ccco4)nc3c2)CC1`, which Potency is on record?
A: Its Potency is inconclusive: 10 µM [rising, partial curve].

Q: With `CCc1c(C)sc(NC(=O)c2cnn3cccnc23)c1C#N` as the compound, how does the activity change, negative = inhibition read?
A: The activity change, negative = inhibition was “inactive”.

Q: For `Cc1nc(C)c2c(=O)cc(-c3ccccc3)[nH]c2n1`, which Potency is on record?
A: Its Potency is inconclusive: 15.8 µM [rising, partial curve].

Q: For `C=CCn1c(SCC(=O)NCc2ccc3c(c2)OCO3)nnc1C1COc2ccccc2O1` (configuration not stated), which activity change, negative = inhibition is on record?
A: The activity change, negative = inhibition was “inactive”.

Q: With `N#Cc1ccccc1-c1ccc2ncnc(NCc3ccccc3)c2c1` as the compound, how does the Potency read?
A: Its Potency is active: 2 µM.

Q: For `COc1ccc(C(=O)CSc2nnnn2Cc2ccccc2)cc1`, which activity change, negative = inhibition is on record?
A: Its activity change, negative = inhibition is “inactive”.

Q: With `COc1cc(-c2nnc(SCC(=O)N(Cc3ccccc3)C(C)(C)C)o2)cc(OC)c1OC` as the compound, how does the Potency read?
A: Its Potency is inconclusive: 1 µM [rising, full curve, poor fit].

Q: Which Potency does the source give for `C/C(Cl)=C\Cn1c(=O)c2c(nc3n2CCS3)n(C)c1=O` here?
A: The Potency was inconclusive: 12.6 µM [rising, partial curve].

Q: For `Cc1ccc2nc(NC(=O)CN(C)S(=O)(=O)c3ccc(Br)s3)sc2c1`, which activity change, negative = inhibition is on record?
A: The activity change, negative = inhibition was “inactive”.

Q: With `O=S(=O)(c1ccc(N2CCN(S(=O)(=O)c3ccc4c(c3)OCCO4)CC2)nc1)N1CCCC1` as the compound, how does the activity change, negative = inhibition read?
A: The activity change, negative = inhibition was “inactive”.

Q: With `COc1cc2cc(C(c3nnnn3C(C)(C)C)N3CCc4ccccc4C3)c(=O)[nH]c2cc1OC` (configuration not stated) as the compound, how does the Potency read?
A: The Potency was inconclusive: 10 µM [rising, single point].

Q: With `CC(C)c1ccc2c(c1)CC[C@@H]1[C@@](C)(CN)CCC[C@@]21C` as the compound, how does the activity change, negative = inhibition read?
A: Its activity change, negative = inhibition is inconclusive: -20.9%.

Q: Which Potency does the source give for `O=C(CN1CCN(c2ccccn2)CC1)Nc1cc(C(F)(F)F)ccc1Cl` here?
A: The Potency was inconclusive: 12.6 µM [rising, partial curve].

Q: For `COC(=O)[C@@]1(Cc2ccccc2)[C@H]2c3cc(C(=O)N4CCCC4)n(Cc4cc(F)cc5c4OCOC5)c3C[C@H]2CN1C(=O)c1ccccc1`, which activity change, negative = inhibition is on record?
A: The activity change, negative = inhibition was “inactive”.

Q: With `Cc1ccc(CNC(=O)CNS(=O)(=O)c2cccc3nsnc23)cc1` as the compound, how does the activity change, negative = inhibition read?
A: Its activity change, negative = inhibition is inconclusive: -7.15%.

Q: For `N#Cc1c(N)[nH]c(=S)c(C#N)c1-c1ccccc1`, which Potency is on record?
A: The Potency was inconclusive: 25.1 µM [falling, single point].

Q: With `Cc1cc(C)c2c(=O)[nH]c(SCC(=O)Nc3ccccc3)nc2n1` as the compound, how does the Potency read?
A: Its Potency is active: 5.01 µM.

Q: For `Cn1c(SCC(=O)Nc2ccc3cn[nH]c3c2)nnc1-c1cccs1`, which activity change, negative = inhibition is on record?
A: Its activity change, negative = inhibition is “inactive”.

Q: For `O=C(NC1CC1)c1ccc(COc2ccc(F)cc2)o1`, which activity change, negative = inhibition is on record?
A: Its activity change, negative = inhibition is inconclusive: -6.26%.

Q: For `COc1ccc(N2CCN(C(=O)CSc3nnc4nc(C)cc(C)n34)CC2)cc1`, which activity change, negative = inhibition is on record?
A: Its activity change, negative = inhibition is inconclusive: 35.9%.

Q: For `Cc1ccc2nc3ccc(N4CCN(C)CC4)nn3c(=O)c2c1`, which activity change, negative = inhibition is on record?
A: Its activity change, negative = inhibition is “inactive”.

Q: Which activity change, negative = inhibition does the source give for `Cc1c(NC(=O)C(C)OC(=O)c2cc3c4ccccc4n(C)c3s2)c(=O)n(-c2ccccc2)n1C` (configuration not stated) here?
A: The activity change, negative = inhibition was inconclusive: 10.9%.

Q: Which activity change, negative = inhibition does the source give for `CCCn1c(C)nc2c(NCCN3CCOCC3)nc(C)nc21` here?
A: The activity change, negative = inhibition was “inactive”.

Q: With `CCOC(=O)CSc1ccc2nnc(-c3ccccc3)n2n1` as the compound, how does the activity change, negative = inhibition read?
A: The activity change, negative = inhibition was “inactive”.

Q: Which activity change, negative = inhibition does the source give for `CO/N=C(/C(=O)N[C@@H]1C(=O)N2C(C(=O)O)=C(COC(N)=O)CS[C@H]12)c1ccco1` here?
A: Its activity change, negative = inhibition is “inactive”.

Q: Which activity change, negative = inhibition does the source give for `COc1ccc(CN=CC2=C(O)CC(C)(C)CC2=O)cc1` here?
A: The activity change, negative = inhibition was inconclusive: 4.19% [at 7.6 µM].

Q: For `Cc1ccc2cc(C#N)c(N3CCCN(C(=O)C4CCCO4)CC3)nc2c1C` (configuration not stated), which activity change, negative = inhibition is on record?
A: Its activity change, negative = inhibition is “inactive”.

Q: Which activity change, negative = inhibition does the source give for `c1ccc(C[n+]2cccc(-c3cc4ccccc4[nH]3)c2)cc1` here?
A: The activity change, negative = inhibition was inactive: -5.68% [at 7.6 µM].

Q: Which Potency does the source give for `CCOC(=O)c1[nH]c2ccc(OC)cc2c1NC(=O)c1nonc1C` here?
A: The Potency was active: 3.98 µM.

Q: With `O=C(CCCNS(=O)(=O)c1cccs1)N1CCN(c2cccc(Cl)c2)CC1` as the compound, how does the activity change, negative = inhibition read?
A: The activity change, negative = inhibition was inconclusive: -27.8%.

Q: Which Potency does the source give for `COc1cc(-c2nnc(-c3ccc(S(=O)(=O)c4ccccc4)cc3)o2)cc(OC)c1OC` here?
A: The Potency was active: 3.98 µM.

From PubChem BioAssay AID662 (National Center for Advancing Translational Sciences (NCATS), 2007)
